Measured values reported in PubChem BioAssay AID720542 (National Center for Advancing Translational Sciences (NCATS), 2013).
About 740 (0.21%) of roughly 360,000 compounds were called active. The inconclusive results got no clear call from the source; some entries with a clear call stand among them for comparison. Calls come from the whole dose curve; as a rule, active = well fitted inhibition curve with a large enough effect; inconclusive = small, poorly fitted or top-dose-only effect; inactive = no such curve, though single readings can be large or run the other way. Potencies of inconclusive entries are left out as doubtful fits.

Tested on: Plasmodium falciparum AMA1 (3D7) - RON2 peptide interaction
Assay: qHTS for Inhibitors of AMA1-RON; Towards Development of Antimalarial Drug Lead: Primary Screen; note: nearly all actives have a fitted effect of over 45% in size;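 for activity change, negative = inhibition: 0% = vehicle wells and -100% = peptide control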
Settings: AlphaScreen AMA1-biotinylated RON2 peptide binding; activity change, negative = inhibition: at 58.2 µM (top of the series) unless noted
How it was run: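 AMA1 (3D7) with his tag at 25 nM final met compounds first, then biotinylated RON2 peptide at 25 nM; detection used donor plus acceptor beads, 10 µg/mL apiece, read by AlphaScreen after 30 min at room temperature.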
Potency is the fitted concentration of half-maximal effect; tags give direction and shape of the fitted curve.

Compound	Potency	activity change, negative = inhibition
COc1cccc(CN2CCN(C(=O)c3cccc(OC)c3)CC2)c1	inconclusive [inhibitor, single point]	
C/C(Cl)=C/Cc1c(C)[nH]c2ccc(C)cc2c1=O	inconclusive [inhibitor, full curve, poor fit]	
Cc1cc(NC(=O)c2ccc([N+](=O)[O-])cc2Cl)no1		inactive: 23%
Cc1ccccc1-n1ncc2c([N+](=O)[O-])cc([N+](=O)[O-])cc21	inconclusive [inhibitor, single point]	
CCn1nc(C(=O)Nc2ccc(S(=O)(=O)Nc3nccs3)cc2)c2ccccc2c1=O		inconclusive: -11.9% [inhibitor]
O=C(Nc1cccc(C(F)(F)F)c1)c1ccc2nc(-c3ccco3)c(-c3ccco3)nc2c1	inconclusive [inhibitor, single point]	
O=S(=O)(Nc1ccccn1)c1cccc(S(=O)(=O)c2ccc(Br)cc2)c1		inconclusive: -14.3% [inhibitor]
Cc1cc2ccccc2n1CCNC(=O)c1cccs1	inconclusive [inhibitor, single point]	
O=C(N1CCOCC1)C1(c2ccccc2)CCCCC1		inactive: -1.27%
C=CCn1c(=O)c2c3c(sc2n2c(Nc4ccc(OC)cc4)nnc12)CCCC3	inconclusive [inhibitor, full curve, poor fit]	
O=C(Nc1ccccc1C(=O)NCc1ccco1)c1ccco1		inactive: 2.6%
CCOC(=O)c1c(NCc2ccccc2)n[nH]c1C		inactive: 11.2%
COc1ccc(N2Cc3cccc(C(=O)N4CCN(C(=O)c5ccco5)CC4)c3C2=O)cc1	inconclusive [inhibitor, partial curve]	
CC(C)(C)OC[C@H](NC(=O)c1[nH]cnc1C(=O)Nc1ccccc1F)C(=O)OC(C)(C)C		inactive: 107%
Cc1ccc(S(=O)(=O)N2C[C@H]3n4c(=O)ccc(=O)n4C[C@H](OC(=O)NCc4ccccc4F)[C@@]3(O)C2)cc1		inactive: -3.38%
O=S(=O)(c1ccc(Cl)c(NC(=S)Nc2cccc(O)c2)c1)N1CCOCC1		inactive: 43.9%
CCN1CCN(c2nc(Nc3ccccc3)nc(N)c2[N+](=O)[O-])CC1	inconclusive [inhibitor, single point]	
CCOC(=O)[C@]12Cc3cc(N(C)C)ccc3[C@H]1N(Cc1ccccc1)C(=O)c1ccccc12	inconclusive [inhibitor, single point]	
CCn1c(C(=O)N2CCc3ccccc3C2)cc2oc3ccccc3c21	inconclusive [inhibitor, partial curve]	
CCc1ccc(C(C(=O)NC(C)(C)CC)N(Cc2ccco2)C(=O)Cn2nnc3ccccc32)cc1 (stereo not given)		inactive: -4.33%
CN1c2ccccc2C(C)(C)[C@]12C=Cc1cc(O)ccc1O2	inconclusive [inhibitor, single point]	
CC1CCC(=NNc2ccc(C(F)(F)F)cc2[N+](=O)[O-])CC1 (stereo not given)	inconclusive [inhibitor, single point]	
Cc1cc(O)c(C(C)C)cc1N=Cc1ccc([N+](=O)[O-])cc1	inconclusive [inhibitor, single point]	

Compound	Potency	activity change, negative = inhibition
C=CCn1c(O)c(C(CC)=Nc2ccc(N(C)C)cc2)c(=O)[nH]c1=O	inconclusive [inhibitor, full curve]	
COc1ccccc1C(=O)Nc1ccc(N2CCN(Cc3ccccc3)CC2)cc1	inconclusive [inhibitor, single point]	
COc1ccc(NC(=O)CN2CCN(Cc3ccc4c(c3)OCO4)CC2)cc1OC	inconclusive [inhibitor, partial curve]	
Cc1ccc(-c2c(C(=O)NC(C)C)oc(=O)c3ccccc23)cc1		inconclusive: -32.7% [inhibitor]
CC(C(=O)Nc1cccnc1)N1C(=O)c2ccccc2C1=O (stereo not given)		inactive: -0.454%
Cc1cc(C(=O)COc2ccccc2C(N)=O)c(C)n1CC1CCCO1 (stereo not given)		inactive: -0.594%
COc1ccc(CCNc2ccc(S(=O)(=O)N3CCN(C)CC3)cc2[N+](=O)[O-])cc1	inconclusive [inhibitor, partial curve, poor fit]	
C(=N\N(Cc1ccccc1)c1ccccc1)/c1ccco1	inconclusive [inhibitor, single point]	
COc1ccc(NC(=O)c2onc(C)c2Cl)cc1OC		inactive: 4.1%
CCn1c(=O)n(C)c2c(=O)n(C)c(=O)n(C)c21		inactive: 0%
CCOC(=O)C1=C(C)N=c2s/c(=C/c3ccco3)c(=O)n2C1c1cccc(OC)c1 (stereo not given)	inconclusive [inhibitor, partial curve]	
COc1ccccc1NCc1nnc(SCC(=O)N/N=C/c2ccco2)n1-c1ccc(Cl)cc1Cl	inconclusive [inhibitor, single point]	
CCOC(=O)c1cccc(NC(=O)c2c(N)n(C)c(=O)[nH]c2=O)c1		inactive: 15.5%
CS(=O)(=O)Nc1cccc(NC(=O)c2ccc(-n3ccnc3)c3ccoc23)c1	inconclusive [inhibitor, single point]	
CNC(=O)CN(Cc1ccccc1)S(=O)(=O)c1ccc(Cl)cc1		inactive: 4.21%
CCCCn1c(O)c(C(CC)=NCCCN(C)C)c(=O)[nH]c1=O	inconclusive [inhibitor, partial curve]	
COc1ccc2[nH]c3c(c2c1)CCN1C(=O)C(CC(=O)NCc2ccc(OC)c(OC)c2)C[C@H](C(=O)N2CCCCC2)[C@@]31CCc1ccccc1 (stereo not given in full)	inconclusive [inhibitor, single point]	
Cc1cc(=O)c2c(N(C)C)cccc2[nH]1	inconclusive [inhibitor, partial curve]	
OCCN=C1CCCc2c1[nH]c1ccc(Cl)cc21	inconclusive [inhibitor, partial curve]	
CC1(C)c2ccccc2C(=O)c2ccccc21		inactive: 20.4%
CSc1ccc(C(=O)C2CCCN(Cc3cc4ccccc4[nH]3)C2)cc1 (stereo not given)	active: 31.6 µM	
O=C(c1ccc(Cl)cc1)C1CCCN(Cc2cnn(-c3ccccc3)c2)C1 (stereo not given)	inconclusive [inhibitor, partial curve]	
